Data taken from article PMC4336329 (PLoS ONE, 2015).
The whole screen tested about 310,000 compounds, of which about 2,200 (0.71%) showed an effect of 50% or more. Effects have a minus sign here. The list shows a part of the results.

What follows are compounds tested against human ether-à-go-go-related gene (hERG) potassium channel (human, UniProt Q12809) (assay: primary screen, population patch clamp on CHO cells stably expressing hERG).
human ether-à-go-go-related gene (hERG) potassium channel, sequence (Q12809 whole entry, looked up): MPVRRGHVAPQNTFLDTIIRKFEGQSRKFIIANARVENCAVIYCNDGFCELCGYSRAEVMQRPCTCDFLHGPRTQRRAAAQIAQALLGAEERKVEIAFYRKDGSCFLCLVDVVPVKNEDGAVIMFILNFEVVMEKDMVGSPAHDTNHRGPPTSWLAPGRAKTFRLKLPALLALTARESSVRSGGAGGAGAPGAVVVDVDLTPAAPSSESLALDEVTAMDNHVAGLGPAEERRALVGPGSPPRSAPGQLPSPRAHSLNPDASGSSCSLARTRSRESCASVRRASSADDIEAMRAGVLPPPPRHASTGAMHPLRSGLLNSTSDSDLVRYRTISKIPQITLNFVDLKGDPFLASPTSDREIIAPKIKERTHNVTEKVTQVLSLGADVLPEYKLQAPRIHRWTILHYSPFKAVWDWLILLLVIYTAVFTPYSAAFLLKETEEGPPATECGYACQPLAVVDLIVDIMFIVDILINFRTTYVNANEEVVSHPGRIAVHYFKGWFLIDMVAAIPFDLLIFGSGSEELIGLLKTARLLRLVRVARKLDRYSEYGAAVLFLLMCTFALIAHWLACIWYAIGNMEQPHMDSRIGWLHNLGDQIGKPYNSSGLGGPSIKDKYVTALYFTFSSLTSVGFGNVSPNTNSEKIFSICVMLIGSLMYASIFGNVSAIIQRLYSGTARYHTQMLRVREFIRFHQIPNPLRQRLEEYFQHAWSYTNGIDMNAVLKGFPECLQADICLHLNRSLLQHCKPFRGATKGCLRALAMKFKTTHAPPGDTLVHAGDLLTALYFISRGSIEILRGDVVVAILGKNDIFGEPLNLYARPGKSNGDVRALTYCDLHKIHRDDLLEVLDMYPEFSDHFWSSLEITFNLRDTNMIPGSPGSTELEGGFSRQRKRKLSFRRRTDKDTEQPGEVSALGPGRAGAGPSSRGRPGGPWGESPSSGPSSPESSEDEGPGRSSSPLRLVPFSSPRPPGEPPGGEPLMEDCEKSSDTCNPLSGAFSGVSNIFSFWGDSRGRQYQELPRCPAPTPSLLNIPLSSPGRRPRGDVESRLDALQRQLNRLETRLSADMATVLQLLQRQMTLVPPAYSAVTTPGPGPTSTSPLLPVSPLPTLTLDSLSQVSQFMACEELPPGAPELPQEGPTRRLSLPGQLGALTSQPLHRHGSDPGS

Question: Which “hERG current change (%, negative = inhibition) at 1uM” value does the source give for O=C(CCCN1C(=O)c2ccccc2C1=O)Nc1nnc(C2CC2)s1 here?
Answer: 19%

Question: For CC1CN(c2ccc(Cl)cc2[N+](=O)[O-])CCN1S(C)(=O)=O (stereo not shown), which “hERG current change (%, negative = inhibition) at 1uM” value is on record?
Answer: -15.1%

Question: For Cc1ccccc1N=C1NC(=O)C(CO)(CO)S1, which “hERG current change (%, negative = inhibition) at 1uM” value is on record?
Answer: 10.1%

Question: Which “hERG current change (%, negative = inhibition) at 1uM” value does the source give for O=C(Nc1cccc(C(=O)NC2CCCCC2)c1)c1ccccc1 here?
Answer: 13.3%

Question: With Cn1ncc(Br)c1C(=O)Nc1cccc(C(F)(F)F)c1 as the compound, how does the “hERG current change (%, negative = inhibition) at 1uM” value read?
Answer: 9.02%

Question: For O=C(CCc1ccccc1)Nc1ccc(NC(=O)C2CCCCC2)nc1, which “hERG current change (%, negative = inhibition) at 1uM” value is on record?
Answer: 12.4%

Question: Which “hERG current change (%, negative = inhibition) at 1uM” value does the source give for CCCn1c(SCC(=O)NCCc2ccccc2)nnc1C(C)C here?
Answer: 10.1%

Question: CC1CN(C(=O)COC(=O)/C=C/c2ccc(C(F)(F)F)cc2)CC(C)O1 (stereo not shown) was tested. Which “hERG current change (%, negative = inhibition) at 1uM” value did it give?
Answer: 9.6%

Question: With O=C(COc1ccccc1)Nc1ccc(-c2nnc(-c3ccco3)o2)cc1 as the compound, how does the “hERG current change (%, negative = inhibition) at 1uM” value read?
Answer: 9.91%

Question: NC(=NCc1ccco1)NC(=O)c1ccc(Cl)cc1 was tested. Which “hERG current change (%, negative = inhibition) at 1uM” value did it give?
Answer: -3.12%

Question: For NC(=S)N=Nc1ccc(NN=C(N)N)cc1, which “hERG current change (%, negative = inhibition) at 1uM” value is on record?
Answer: 9.26%

Question: For CCC(CC)C(=O)NN(C(=O)c1ccncc1)C1CC(=O)N(c2ccccc2)C1=O (stereo not shown), which “hERG current change (%, negative = inhibition) at 1uM” value is on record?
Answer: 12.1%

Question: With COc1ccc(OCC(O)CN2CCN(Cc3ccc4c(c3)OCO4)CC2)cc1.Cl (stereo not shown) as the compound, how does the “hERG current change (%, negative = inhibition) at 1uM” value read?
Answer: -9.87%

Question: For CS(=O)(=O)c1ccc(NCCc2ccccn2)c([N+](=O)[O-])c1, which “hERG current change (%, negative = inhibition) at 1uM” value is on record?
Answer: -2.48%

Question: Which “hERG current change (%, negative = inhibition) at 1uM” value does the source give for CCCCN1CC[C@H]2C=CC[C@@H](C(=O)Nc3ccc(Cl)cc3Cl)[C@H]2C1=O here?
Answer: 3.29%

Question: O=C(NNC(=O)C12CC3CC(CC(C3)C1)C2)c1ccccc1F was tested. Which “hERG current change (%, negative = inhibition) at 1uM” value did it give?
Answer: 6.91%

Question: For Cc1ccc(C(=O)NS(=O)(=O)c2ccc(C)cc2)cc1, which “hERG current change (%, negative = inhibition) at 1uM” value is on record?
Answer: 20.7%

Question: O=C(N1CCOCC1)N(CCN1CCOCC1)Cc1cccc2ccccc12 was tested. Which “hERG current change (%, negative = inhibition) at 1uM” value did it give?
Answer: 7.6%

Question: For CCn1nc(C)c(C2C(C#N)=C(N)OC3=C2C(=O)CC(C)(C)C3)c1C (stereo not shown), which “hERG current change (%, negative = inhibition) at 1uM” value is on record?
Answer: 9.51%

Question: How did the “hERG current change (%, negative = inhibition) at 1uM” value turn out when CCN(CCO)Cc1csc2cc(C)ccc12.Cl was run?
Answer: -0.923%

Question: With OCC1CCCN(c2nc(CN3CCCCC3)nc3scc(-c4ccccc4)c23)C1 (stereo not shown) as the compound, how does the “hERG current change (%, negative = inhibition) at 1uM” value read?
Answer: -16.5%

Question: With CN(Cc1ccccc1)C(=O)c1nn2cccnc2c1Cl as the compound, how does the “hERG current change (%, negative = inhibition) at 1uM” value read?
Answer: 13.2%

Question: Which “hERG current change (%, negative = inhibition) at 1uM” value does the source give for Cc1ccccc1OCC(O)CNC1CCC(NCC(O)COc2ccccc2C)CC1 (stereo not shown) here?
Answer: 7.91%

Question: Which “hERG current change (%, negative = inhibition) at 1uM” value does the source give for CC1CCCCN1C(=O)COc1ccc(F)cc1 (stereo not shown) here?
Answer: 7.67%

Question: For COCCN(C(=S)Nc1ccccc1OC)C1CCN(C(C)C)CC1, which “hERG current change (%, negative = inhibition) at 1uM” value is on record?
Answer: -8.33%

Question: O=C(c1ccc(CS(=O)Cc2ccccc2Cl)o1)N1CCN(c2cccc(Cl)c2)CC1 (stereo not shown) was tested. Which “hERG current change (%, negative = inhibition) at 1uM” value did it give?
Answer: 5.79%

Question: With CS(=O)(=O)N(CC(=O)N1CCN(Cc2ccc3c(c2)OCO3)CC1)C1CCCCC1 as the compound, how does the “hERG current change (%, negative = inhibition) at 1uM” value read?
Answer: 4.35%

Question: Which “hERG current change (%, negative = inhibition) at 1uM” value does the source give for COc1cccc(N=C2C(=O)N3CCCc4cccc2c43)c1 here?
Answer: 16.3%

Question: Which “hERG current change (%, negative = inhibition) at 1uM” value does the source give for COc1ccc(NC2CCCN(C(=O)c3cccc(N4CCNC4=O)c3)C2)cc1 (stereo not shown) here?
Answer: 16.3%

Question: Which “hERG current change (%, negative = inhibition) at 1uM” value does the source give for O=C1C(=O)N(Cc2cccs2)c2ccccc21 here?
Answer: 12.9%

Question: For COC(=O)c1c(Cl)c2n3ccccc3c(C)c(-c3ccccc3)c-2c1C(=O)OC, which “hERG current change (%, negative = inhibition) at 1uM” value is on record?
Answer: 16.3%

Question: For CCN(C(=S)NC(=O)C1CCCC1)C1CCCCC1, which “hERG current change (%, negative = inhibition) at 1uM” value is on record?
Answer: 11.7%

Question: COc1ccc(-c2csc(NC(C)c3nc4cc(Cl)c(Cl)cc4n3CCCO)n2)cc1 (stereo not shown) was tested. Which “hERG current change (%, negative = inhibition) at 1uM” value did it give?
Answer: 13.1%

Question: How did the “hERG current change (%, negative = inhibition) at 1uM” value turn out when C#CCSc1nnc(CSc2nc3ccccc3s2)n1-c1ccccc1 was run?
Answer: 16.5%

Question: With CCOc1ccc(N(CC)C(=O)c2cn(CC)c(=O)c3cc(OC)c(OC)cc23)cc1 as the compound, how does the “hERG current change (%, negative = inhibition) at 1uM” value read?
Answer: 11%

Question: CC1CCCCN1C(=O)c1cc(S(=O)(=O)N2CCCCC2)c[nH]1 (stereo not shown) was tested. Which “hERG current change (%, negative = inhibition) at 1uM” value did it give?
Answer: 15.8%

Question: Which “hERG current change (%, negative = inhibition) at 1uM” value does the source give for O=C(c1cc2ccccc2o1)N1CCN(c2cccc(C(F)(F)F)c2)CC1 here?
Answer: 10.7%

Question: Which “hERG current change (%, negative = inhibition) at 1uM” value does the source give for Cc1ccc(C(=O)N/C(=C/c2cccc([N+](=O)[O-])c2)C(=O)NC(C)C)cc1 here?
Answer: -12.2%

Question: CC1CC/C(=C\c2ccc3c(c2)OCO3)C(=O)/C1=C/c1ccc2c(c1)OCO2 (stereo not shown) was tested. Which “hERG current change (%, negative = inhibition) at 1uM” value did it give?
Answer: 12.3%

Question: With COc1ccc(-c2c(C)nn(-c3ccccc3)c2NC(C)=O)cc1OC as the compound, how does the “hERG current change (%, negative = inhibition) at 1uM” value read?
Answer: 14.8%

Question: O=C(CN1C(=O)c2ccccc2S1(=O)=O)c1ccc2c(c1)OCCO2 was tested. Which “hERG current change (%, negative = inhibition) at 1uM” value did it give?
Answer: 7.64%

Question: How did the “hERG current change (%, negative = inhibition) at 1uM” value turn out when CCc1cc(C(=O)NC(C)C2CCCO2)cs1 (stereo not shown) was run?
Answer: 29.8%

Question: Which “hERG current change (%, negative = inhibition) at 1uM” value does the source give for COC(=O)c1c(C(=O)OC)c(-c2cccc(Cl)c2)n2c1CS(=O)(=O)C2 here?
Answer: 8.36%

Question: C=CCn1c(SCC(N)=O)nnc1-c1ccccc1O was tested. Which “hERG current change (%, negative = inhibition) at 1uM” value did it give?
Answer: -0.193%

Question: O=C(CCN=C1NS(=O)(=O)c2ccccc21)OCC(=O)c1ccc(F)cc1 was tested. Which “hERG current change (%, negative = inhibition) at 1uM” value did it give?
Answer: 26.6%

Question: O=C(Cc1nc(-c2ccc(Br)s2)cs1)NCCN1CCOCC1 was tested. Which “hERG current change (%, negative = inhibition) at 1uM” value did it give?
Answer: 7.47%

Question: How did the “hERG current change (%, negative = inhibition) at 1uM” value turn out when O=C(Cn1ccc(NC(=O)OCc2ccccc2)nc1=O)NCCN1CCOCC1 was run?
Answer: 15.1%

Question: Which “hERG current change (%, negative = inhibition) at 1uM” value does the source give for CN(CCC#N)C(=O)COC(=O)c1ccc(Cl)c(S(=O)(=O)N(C)c2ccccc2)c1 here?
Answer: -17.6%

Question: CCCC(=O)Nc1c(-c2ccc(C)cc2)c(=O)c2ccccc2n1C was tested. Which “hERG current change (%, negative = inhibition) at 1uM” value did it give?
Answer: 5.38%

Question: For CC1(C)Oc2ccc3ccc(=O)oc3c2/C(=C/NNC(N)=O)C1=O, which “hERG current change (%, negative = inhibition) at 1uM” value is on record?
Answer: 4.1%

Question: How did the “hERG current change (%, negative = inhibition) at 1uM” value turn out when Cc1cc(C)n2nc(SCCC(=O)NCc3ccccc3)nc2n1 was run?
Answer: 8.12%

Question: COc1cccc2cc(-c3nc(-c4cccs4)cs3)c(=O)oc12 was tested. Which “hERG current change (%, negative = inhibition) at 1uM” value did it give?
Answer: 11.1%

Question: Which “hERG current change (%, negative = inhibition) at 1uM” value does the source give for COCCNC(=O)CN1C(=O)CSc2ccc(S(=O)(=O)N3CCOCC3)cc21 here?
Answer: 19.1%

Question: Which “hERG current change (%, negative = inhibition) at 1uM” value does the source give for COc1ccc(C(=O)c2ccc(OC)c(OC)c2)cc1 here?
Answer: 0.254%

Question: How did the “hERG current change (%, negative = inhibition) at 1uM” value turn out when COc1cccc(NC(=S)N/N=C2\CC3CCC2(C)C3(C)C)c1 (stereo not shown) was run?
Answer: -0.66%

Question: How did the “hERG current change (%, negative = inhibition) at 1uM” value turn out when CCCC(=O)c1c[nH]c(C(=O)N2CCOCC2)c1 was run?
Answer: 7.66%

Question: For CNC(=O)COc1ccc(S(=O)(=O)Nc2ccc(C)cc2)cc1, which “hERG current change (%, negative = inhibition) at 1uM” value is on record?
Answer: 9.74%

Question: With CC(C)NC(=O)Cn1cc(C(=O)C(=O)N2CCOCC2)c2ccccc21 as the compound, how does the “hERG current change (%, negative = inhibition) at 1uM” value read?
Answer: 9.63%
